# Measurements reported in ChEMBL document CHEMBL1157539, “Thousands of chemical starting points for antimalarial lead identification” (Nature, 2010).
# Over roughly 13,000 compounds, “IFI” has its median near 4; the highest 2% begin near 17. The list shows a part of the results.
# Experiment: GSK_TCMDC: Inhibition Frequency Index (IFI). The number of non-kinase HTS assays where a compound showed > 50 % inhibition, expressed as a percentage of the number of such assays in which the compound was tested (-0 is zero)
# Format: functional
row,Compound,IFI
1,CC(C)CNCc1ccc(-c2cccc(-c3nc4ccccc4[nH]3)c2)cc1,10.3%
2,CC(C)CCNC(=N)Nc1ccc(OCCCOc2ccc(NC(=N)NCCC(C)C)cc2)cc1,5.04%
3,CCc1sc(N2CCC(C)CC2)nc1C(=O)Nc1ccc(F)cc1C(F)(F)F,-0%
4,CCN(CC)CCN(Cc1ccc(-c2ccc(C(F)(F)F)cc2)cc1)C(=O)Cn1c(SCc2ccc(F)cc2)nc(=O)c2ccccc21,7.14%
5,O=S(=O)(Nc1cccc(CCN2CCCCC2CCN2CCCC2)c1)c1ccc(-c2ccccc2)cc1 (configuration not stated),14.5%
6,Cc1cc(NCCC(=O)Nc2ccccc2)nc(NCCc2ccccc2)n1,2.27%
7,CN(C)CCC1CCCc2ccc(NC(=O)Nc3cccc(Cl)c3Cl)cc21 (configuration not stated),3.88%
8,CCC1N=C(N)N=C(N)N1OCCCOc1c(Cl)cc(Cl)cc1Cl (configuration not stated),5.76%
9,CC[C@H]1CN(CCCC(=O)c2ccccc2)CC[C@H]1CCCc1ccnc2ccc(OC(=O)c3ccccc3)cc12,12.2%
10,CC(C)(C)OC(=O)NCc1ccc(Nc2nnc(-c3cccc(C(=O)NCCC(c4ccccc4)c4ccccc4)c3)o2)cc1,6.67%
11,Cn1cnc2c(SCc3ccc(OCc4ccccc4)cc3)ncnc21,5%
12,Nc1nccc2ccc(-c3cccc(OCc4ccccc4)c3)cc12,19.8%
13,CCOC(=O)c1c(CN(CC)CC)n(-c2ccccc2)c2cc(Br)c(O)cc12,1.48%
14,c1ccc(CNc2nc(NCCc3c[nH]cn3)nc(NCc3cccc4ccccc34)n2)cc1,1.5%
15,O=C(Nc1ccc(N2CCN(c3ncccc3C(F)(F)F)CC2)nc1)c1cccs1,14%
16,O=C(Cn1nc(Br)nc1[N+](=O)[O-])NCC1CCCCC1,2.99%
17,C=CCn1c(C)cc(C(=O)COc2ccc(S(=O)(=O)N3CCOCC3)cc2[N+](=O)[O-])c1C,0.95%
18,Cc1cn(CC(=O)Nc2cccc(-c3cccc(-c4nc5cccc(C)c5[nH]4)c3)c2)c(=O)[nH]c1=O,-0%
19,CCOc1ccc(N2C(N)=NC(N)=NC2(C)C)cc1,-0%
20,COc1ccc(OC)c2c1CC1NCC2c2c(OC)ccc(OC)c21 (configuration not stated),0%
21,CN(C)c1ccc(-c2csc(C(=O)NC3CCN(Cc4ccc(C(C)(C)C)cc4)C3)c2)cc1 (configuration not stated),14.6%
22,COc1ccc2nccc([C@@H](O)CN3CCC(NC(=O)c4ccc(-c5ccccc5)s4)CC3)c2c1,5.22%

row,Compound,IFI
1,O=C(NC1CCN(Cc2ccc3c(c2)OCCO3)CC1)c1ccc(-c2cccc(Cl)c2)s1,15.2%
2,NC(=O)CCC(NC(=O)CNC(=O)Nc1cccc(C(F)(F)F)c1)C(=O)O (configuration not stated),19.9%
3,O=C(NCCCCN1CCC(c2ccc(-c3ccco3)cc2)CC1)c1ccc(NC(=O)c2ccc(Cl)cc2)cc1,5.98%
4,COC(=O)c1sc(-c2ccc(Cl)cc2)cc1N(CCCN1CCC(N2CCCCC2)CC1)S(=O)(=O)c1ccc(C)cc1,11.6%
5,CCn1cc(CN2C(=O)C(c3ccccc3)(c3ccccc3)N=C2N)cn1,0.85%
6,O=C(NCc1ccc(Cl)cc1)c1ccc(CN2CCCN(CC3CCCCC3)CC2)cc1,3.31%
7,CCCc1cc(NC2CCN(C)CC2)nc(Nc2ccc(F)cc2)n1,2.99%
8,Cc1c2ccncc2c(C)c2c1[nH]c1cc(Cc3ccccc3)c(O)cc12,11.8%
9,COc1cc(Nc2nccc(N3CCC(NC(=O)c4cc5ccccc5s4)C3)n2)cc(OC)c1OC (configuration not stated),4.55%
10,CN1CCN(c2ccc(CNc3ccc4ncc(-c5ccc(OC(F)(F)F)cc5)n4n3)cc2)CC1,5.51%
11,O=[N+]([O-])c1ccccc1/C=N/Nc1ccnc2ccc(C(F)(F)F)cc12,0.74%
12,O=C(Cn1c(CCc2cccc(F)c2F)nc(=O)c2ccccc21)N(CCCN1CCCCC1)Cc1ccc(-c2ccc(C(F)(F)F)cc2)cc1,10.4%
13,CCN(CC)CCN(Cc1ccc(-c2ccc(C(F)(F)F)cc2)cc1)C(=O)Cn1c(CCc2cccc(F)c2F)nc(=O)c2cc(C)ccc21,3.73%
14,Clc1ccc2c(NN=Cc3ccco3)ccnc2c1,4.79%
15,Cc1ccc2c(=O)c3cc(C)ccc3[nH]c2c1,1.46%
16,COc1ccc(C2CCN(CCCCNC(=O)c3ccc(NC(=O)c4ccc(Cl)cc4)cc3)C2)c(OC)c1 (configuration not stated),2.65%
17,CN1C(=O)C(=O)N(CCCCCONC(=N)N)C1=S,0.71%
18,Cc1ccc(CNC(=O)c2ccc(CN3CCCN(Cc4ccsc4)CC3)cc2)cc1,4.03%
19,CN(C)CCN(Cc1ccccc1)c1ccc([N+](=O)[O-])cc1C(F)(F)F,3.5%
20,CC(C)c1ccc2c(c1)c(SC(C)(C)C)c(CC(C)(C)C#N)n2Cc1ccc(Cl)cc1,0.76%
21,CCCCOP(=O)(COc1ccc(CCN(CC(O)COc2cccc3[nH]c4ccccc4c23)CC(O)COc2cccc3[nH]c4ccccc4c23)cc1)C1CCCCC1 (configuration not stated),1.5%
22,CC(C)COc1ccc(Cl)cc1Cc1ccc(-c2nc3ccc(F)c(F)c3[nH]2)o1,11.3%

row,Compound,IFI
1,CC1C(c2cccc(Cl)c2)OCC(C)(C)N1C(=O)CCN1CCCCC1 (configuration not stated),0.75%
2,CO/C(=C\C=C\c1cc2cc(Cl)c(Cl)cc2[nH]1)C(=O)NCCCN1CCN(c2cccc(CCO)c2)CC1,13.5%
3,OC(CNc1ccnc(Nc2cccc(Cl)c2)n1)c1cccc(F)c1 (configuration not stated),12.4%
4,COc1cc2nc(N3CCC(CNC(=O)c4cc(Br)c(Br)s4)CC3)nc(N)c2cc1OC,8.62%
5,CN(C)S(=O)(=O)c1ccc(N2CCN(CCC3(c4cccc(F)c4)CCN(C(=O)C(C)(C)C)CC3)CC2)c2nonc12,9.79%
6,N#Cc1ccc(N2CCN(Cc3ccc(-c4cccc(-c5nc6ccccc6[nH]5)c4)cc3)CC2)nc1,2.86%
7,Cc1ccc(Cc2c[nH]c(NCCSCc3ccc(CN4CCOCC4)o3)nc2=O)cn1,0%
8,CC(=O)c1cccc(NC(=O)c2ccc(Cl)c(S(=O)(=O)N3CCc4ccccc43)c2)c1,3.54%
9,O=C(Nc1ccc(Cl)cc1)N(CC1CC2CCC(C1)N2Cc1ccc(C(F)(F)F)cc1)c1ccc(N2CCOCC2)c(F)c1 (configuration not stated),7.87%
10,COc1cc(C2NCC3(CCOCC3)c3cc4c(cc32)OCCO4)cc(OC)c1OC (configuration not stated),2.78%
11,COCCN1CCC(N(Cc2ccc(-c3ccc(C(F)(F)F)cc3)cc2)C(=O)Cn2c(CCc3cccc(F)c3F)cc(=O)c3c2CCC3)CC1,1.45%
12,CC(=O)N[C@H](C(=O)Nc1ccc(-c2cccc(-c3nc4cccc(C)c4[nH]3)c2)cc1)C(C)C,1.8%
13,Cn1cncc1C(=O)Nc1cccc(-c2ccc(-c3nc4cc(F)ccc4[nH]3)cc2)c1,2.68%
14,CS(=O)(=O)Cc1ccc(Nc2nccc(-c3c(-c4cccc(C(=O)Nc5c(F)cccc5F)c4)nn4ccccc34)n2)cc1,7.87%
15,Cc1cccc2nc(-c3cccc(-c4ccc(NC(=O)Cc5c[nH]cn5)cc4)c3)[nH]c12,1.85%
16,COc1cc(N(Cc2ccccc2C)S(=O)(=O)Cc2ccccc2[N+](=O)[O-])c(OC)cc1Cl,0.68%
17,CN(C)CCc1coc2ccc(C(=O)Nc3ccc(-c4ccc(O)cc4)cc3)cc12,4.38%
18,CC(C)(CNC(=O)/C=C/c1ccc(Cl)c(Cl)c1)CNc1cc(=O)c2ccccc2[nH]1,3.6%
19,CN(C)CCC(O)(c1ccc(Br)cc1)c1cccnc1 (configuration not stated),0%
20,O=[N+]([O-])c1cccc(Nc2cncc(-c3ccc(CO)cc3)c2)c1,4.55%
21,O=C(Cc1c[nH]cn1)Nc1cccc(-c2ccc(-c3nc4cc(C(F)(F)F)ccc4[nH]3)cc2)c1,7.41%
22,CC(C)CN1CCCN(Cc2cccc(NC(=O)c3cc4ccccc4s3)c2)CC1,3.05%

row,Compound,IFI
1,CCCCN(CCCC)CCNC(=O)c1ccc(-c2nc3cc(Cl)ccc3[nH]2)c(OCC)c1,0.72%
2,O=C1C(c2ccccc2)=C(Nc2ccc(Cl)cc2)c2ccccc21,-0%
3,CN(C)CCCSc1ccccc1NC(=O)C=Cc1ccccc1,-0%
4,Clc1cc(Nc2ncnc3sc(C#Cc4ncc[nH]4)cc23)ccc1OCc1ccccn1,0.88%
5,CCNc1cc(C)nc(Nc2ccc(NS(=O)(=O)c3cc(OC)ccc3OC)cc2)n1,13.5%
6,Fc1ccc2[nH]c(-c3cccc(-c4cccc(CNCc5cnn(-c6ccccc6)n5)c4)c3)nc2c1,3.28%
7,Cc1cc(C)c(NC(=O)NC2CCN(CCCCCNC(=O)/C=C/c3ccc(Cl)c(Cl)c3)CC2)c(C)c1,3.33%
8,Cc1cc(NCc2ccc(F)cc2)nc2cc(O)ccc12,10.7%
9,Cc1cc(-c2ccc(CNC3CCN(C)CC3)cc2)ccc1S(=O)(=O)NCc1ccccc1,9.52%
10,COC(=O)COc1cc(C(=O)NCCCCN2CCC(c3ccc4c(c3OC)CCCC4)CC2)ccc1-c1ccc(Cl)cc1,12.9%
11,COc1ccc2nccc([C@@H](O)CN3CCC(NCc4ccc5nc[nH]c(=O)c5c4)CC3)c2c1,-0%
12,CN=c1nc(NN=Cc2ccccc2Cl)[nH]c(=Nc2cccc(C(F)(F)F)c2)[nH]1,3.2%
13,COc1ccc(Nc2ncc3c(-c4cccc(NC(=O)CC(C)C)c4)c[nH]c3n2)cc1OC,6.62%
14,CNCCNc1nccc(N2CCc3ncnc(Nc4ccc(OCc5cccc(F)c5)c(Cl)c4)c3C2)n1,12.4%
15,N#Cc1ccccc1N1CCN(C2CCC(NC(=O)c3n[nH]c4cc(C(F)(F)F)ccc34)CC2)CC1 (configuration not stated),1.75%
16,NCc1ccc(CNCc2cccc(-c3cccc(-c4nc5cc(F)ccc5[nH]4)c3)c2)cc1,6%
17,Cc1cccc2nc(-c3cccc(-c4ccc(NC(=O)c5cnccc5C(F)(F)F)cc4)c3)[nH]c12,8.93%
18,CCCCCCCN1CC[C@@H](CCCc2ccnc3ccc(OCC4CCCNC4)cc23)[C@@H](CC)C1 (some centres not stated),9.35%
19,CC(=O)Nc1cc(C(=O)Nc2ccc(C3=NCCN3)cc2)ccc1C(=O)Nc1ccc(C2=NCCN2)cc1,1.45%
20,Cc1nn(CCOC(=O)NC(NCC2COc3ccccc3O2)C(Cl)(Cl)Cl)cc1[N+](=O)[O-] (configuration not stated),1.53%
21,CC(C)Cn1cc(C2CCN(CCN3CCC(CNC(=O)c4ccc(NC(=O)c5cc(Cl)cc(Cl)c5)cc4)CC3)CC2)c2ccccc21,8.18%
